Data reported in PMC4336329 (PLoS ONE, 2015).
Hit rate of the full screen: of about 310,000 compounds, about 14,000 (4.5%) showed an effect of 50% or more. The effect is printed as a negative number. The list shows a part of the results.

molecular target: human ether-à-go-go-related gene (hERG) potassium channel (human, UniProt Q12809); experiment: primary screen, population patch clamp on CHO cells stably expressing hERG
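Also: peak tail current of the secondary pulse compared with the same well before compound.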

human ether-à-go-go-related gene (hERG) potassium channel, sequence (Q12809 whole entry, looked up): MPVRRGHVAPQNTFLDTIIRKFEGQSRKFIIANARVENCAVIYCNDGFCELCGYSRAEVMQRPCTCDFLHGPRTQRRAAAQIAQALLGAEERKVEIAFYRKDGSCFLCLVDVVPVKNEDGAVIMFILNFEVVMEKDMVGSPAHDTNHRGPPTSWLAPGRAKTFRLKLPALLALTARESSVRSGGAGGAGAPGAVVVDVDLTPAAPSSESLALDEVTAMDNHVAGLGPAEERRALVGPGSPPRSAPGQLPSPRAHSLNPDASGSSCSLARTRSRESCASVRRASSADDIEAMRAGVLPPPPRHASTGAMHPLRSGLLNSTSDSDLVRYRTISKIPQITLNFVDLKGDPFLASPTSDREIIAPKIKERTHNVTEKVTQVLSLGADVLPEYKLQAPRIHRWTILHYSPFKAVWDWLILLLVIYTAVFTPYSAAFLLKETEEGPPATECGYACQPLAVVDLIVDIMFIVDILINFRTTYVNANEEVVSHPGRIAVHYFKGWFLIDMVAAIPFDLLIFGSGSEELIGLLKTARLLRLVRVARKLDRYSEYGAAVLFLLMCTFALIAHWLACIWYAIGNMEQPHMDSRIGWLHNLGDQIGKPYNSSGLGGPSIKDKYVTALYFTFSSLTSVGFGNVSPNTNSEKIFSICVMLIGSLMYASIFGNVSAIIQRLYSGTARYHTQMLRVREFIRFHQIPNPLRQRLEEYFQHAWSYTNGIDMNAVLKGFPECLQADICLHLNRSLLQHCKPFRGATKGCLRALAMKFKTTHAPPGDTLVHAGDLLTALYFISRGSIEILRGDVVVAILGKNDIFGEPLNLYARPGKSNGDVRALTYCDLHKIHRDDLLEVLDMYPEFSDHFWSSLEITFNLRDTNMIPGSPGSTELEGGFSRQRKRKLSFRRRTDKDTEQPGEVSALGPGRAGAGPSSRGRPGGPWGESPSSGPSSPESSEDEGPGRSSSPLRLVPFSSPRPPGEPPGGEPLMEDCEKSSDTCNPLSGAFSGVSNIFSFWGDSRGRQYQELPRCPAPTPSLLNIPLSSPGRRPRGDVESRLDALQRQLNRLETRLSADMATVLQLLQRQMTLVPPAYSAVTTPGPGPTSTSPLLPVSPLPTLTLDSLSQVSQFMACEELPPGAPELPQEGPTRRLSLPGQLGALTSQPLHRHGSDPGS

| Compound | hERG current change (%, negative = inhibition) at 10uM |
| --- | --- |
| Cc1cc(-c2ccc(C(C)C)c(S(=O)(=O)Nc3cc(C)on3)c2)on1 | 8.31% |
| COc1cccc(OC)c1OCCCOc1cccc2cccnc12 | 0.258% |
| O=C(COc1ccccc1-c1ccccc1)N/N=C/c1ccc2ccccc2c1 | 8.07% |
| COC(=O)c1ccc2c(c1)S(=O)(=O)NC(=NCCCN1CCOCC1)S2.Cl | -1% |
| CC(=O)Nc1ccc(NC(=O)CSc2nc(N)c(NC(=O)c3ccco3)c(=O)[nH]2)cc1 | 16.5% |
| O=C(NCCc1ccccc1)C(c1ccccc1)N(C(=O)c1csnn1)C1CC1 (stereo not shown) | 0.52% |
| CC(C)(C)c1ccc(-c2nnc(SCC(=O)O)n2N)cc1 | 1.9% |
| O=C(COc1cccc2cccnc12)N/N=C1\SCC(=O)N1Cc1ccccc1 | -44.8% |
| O=C(c1cc([N+](=O)[O-])ccc1N1CCOCC1)N1CCN(c2ccc([N+](=O)[O-])cc2)CC1 | -79.8% |
| CC(C)(C)CC(=O)Nc1ccc(-c2nnc3n2CCCCC3)cc1 | 10.8% |
| C=CCn1c(O)c(C(CC)=Nc2ccc3c(c2)CCC3)c(=O)[nH]c1=O | 1.65% |
| Cc1cc(C)cc(-n2c(SC(C)C(=O)NCc3ccc4c(c3)OCO4)nc3ccccc3c2=O)c1 (stereo not shown) | 11.3% |
| O=C(Nc1cc(Cl)ccn1)C1CCN(S(=O)(=O)c2cccs2)CC1 | -2.64% |
| Cc1nn(C(C)C(=O)N2CCOCC2)c(=O)c2nn(-c3ccccc3)c(C)c12 (stereo not shown) | 5.93% |
| CC(Oc1ccc(Cl)cc1Cl)C(=O)Nc1ccc(S(=O)(=O)Nc2cnc3ccccc3n2)cc1 (stereo not shown) | -17.7% |
| Cc1cccc(NC(=O)Nc2ccc([N+](=O)[O-])cc2)n1 | 12.2% |
| Cc1cccc(NC(=S)c2nc3ccccc3s2)c1 | 10.8% |
| O=C(NCc1ccco1)c1nc2ccccc2s1 | 0.532% |
| CCOc1ccccc1Oc1c(C)oc2c(CN3CCN(CCO)CC3)c(O)ccc2c1=O | 17.1% |
| COc1ccc(/C=N/NC(=O)CN2CCSCC2)c(OC)c1 | 8.66% |

| Compound | hERG current change (%, negative = inhibition) at 10uM |
| --- | --- |
| COC(=O)CCC(=O)Nc1nnc(C(F)(F)F)s1 | 5.15% |
| Cc1cc(C(=O)COC(=O)c2ccc3c(c2)OCO3)c(C)n1Cc1cccs1 | 19.8% |
| CN1C(=O)C2(c3ccccc31)c1c(oc3ccccc3c1=O)C(=O)N2CCO (stereo not shown) | 5.17% |
| COc1ccc(C(=O)C2CCCN(C(=O)Cn3ccc(C)n3)C2)cc1OC (stereo not shown) | 19.1% |
| COCC(C)NS(=O)(=O)c1ccccc1 (stereo not shown) | 12.7% |
| O=C(CN1CCN(c2ccc(Cl)cc2)CC1)Nc1ccc(F)c(F)c1 | -18.7% |
| CCCN=C(N)/C(C(=O)OCC)=C(\O)c1ccc(OC)cc1 | -5.54% |
| S=C(NCc1ccncc1)Nc1ccc(Br)cc1 | -5.05% |
| Cc1ccccc1CN(C)CCc1ccccn1.O=C(O)C(=O)O | -7.25% |
| COc1cc(S(=O)(=O)NC2CCCC2)c(OC)cc1C | 1.17% |
| Cn1c(SCC(=O)c2ccccc2)nnc1-c1ccncc1 | -0.277% |
| CCOc1ccc(CCNC(=O)Cn2cccc2C(=O)c2ccccc2)cc1OCC | -2.85% |
| CC1CCCCC1NC(=O)COC(=O)c1ccccc1NC(=O)c1ccco1 (stereo not shown) | -6.14% |
| COCC(C)NC(=O)CCc1nnc(C2(c3ccc(Cl)cc3)CCC2)o1 (stereo not shown) | 5.14% |
| Cc1csc(NC(=O)CN2CCCCCC2)n1.O=C(O)C(=O)O | 14.3% |
| COC(=O)c1cc(OC)c(OC)c(OC)c1N | 18.3% |
| O=S(=O)(Nc1cccc2ccccc12)N1CCCC1 | -8.59% |
| Cc1ccc2c(c1)-c1c(cnn1CC(=O)NC(C)CCc1ccco1)CO2 (stereo not shown) | -16% |
| O=P(NCc1ccccc1)(Oc1ccccc1)Oc1ccccc1 | -15.6% |
| O=C(COC(=O)C1=COCCO1)NC1CCCCCCC1 | 8.63% |

| Compound | hERG current change (%, negative = inhibition) at 10uM |
| --- | --- |
| CN(C1CCS(=O)(=O)C1)S(=O)(=O)c1ccccc1[N+](=O)[O-] (stereo not shown) | 14.1% |
| Cc1ccccc1OCC(=O)NCC(c1cccs1)N1CCOCC1 (stereo not shown) | -17.3% |
| CCOC(=O)CSc1nc2ccccc2n2cnnc12 | -1.76% |
| Cc1ccc(NC(=O)C2C3CCC(O3)C2C(=O)O)cc1C (stereo not shown) | 2.33% |
| Cc1ccc(C)c(NC(=O)CSc2cccc3cccnc23)c1 | 5.67% |
| CN(C)CCCNCC(=O)Nc1ccc(Cl)cc1C(=O)c1ccccc1.O=C(O)C(=O)O | -69% |
| Cn1c(=O)c2c(nc(OCC3COC(C)(C)O3)n2Cc2ccccc2F)n(C)c1=O (stereo not shown) | -5.39% |
| CC(C)CNS(=O)(=O)c1ccc(CCC(=O)NCc2ccco2)cc1 | -1.29% |
| CCCn1nc(C(=O)OCC(=O)c2ccccc2)c2ccccc2c1=O | 0.569% |
| O=C(Oc1nsnc1N1CCOCC1)N1CCCCC1 | 7.96% |
| CC(C)/C=N/NC(=O)c1cccc(N2CCCC2=O)c1 | -1.8% |
| COC(=O)C(CCSC)NS(=O)(=O)c1ccc(Cl)cc1 (stereo not shown) | 4.36% |
| Cl.NCCc1nnc(SCc2ccc(F)cc2)o1 | -0.73% |
| C=CCN(C(=O)Cn1nnc2ccccc21)C(C(=O)NCCOC)c1ccc(OC)cc1OC (stereo not shown) | 4.46% |
| COc1ccc(COC(=O)c2cc(S(=O)(=O)N3CCCCC3)ccc2N2CCOCC2)cc1 | -2.9% |
| C/C(Cc1ccccc1)=N\NC(=O)CCCCCC(=O)N/N=C(\C)Cc1ccccc1 | 1.8% |
| O=C1c2ccccc2C(=O)N1c1ccc(S(=O)(=O)N2CCCCC2)cc1 | 15.4% |
| COC(=O)c1cc(OC)c(OC)cc1NC(=O)CSc1ccccc1 | -18.3% |
